From the supplement of paper PMC11417369 come the findings set out here.

± gives the standard deviation of the averaged measurements. The list shows a part of the results.

The test system of the assay is PfAP2-EXP AP2 domain (GST-tagged). Briefly: gcPBM binding intensity (ln(normalized median fluorescence intensity)); higher = stronger DNA binding. An outline of the steps: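 The binding buffer was 1× PBS containing 1% milk, 0.2 mg/ml BSA, 0.5% salmon testes DNA and 0.03% Triton X-100. In it, GST-tagged P. falciparum DNA-binding domains expressed in E. coli were applied for 1 h to an Agilent 4 × 180k array of primer-extended double-stranded 36-bp intergenic genomic probes plus negative controls. Binding intensity, read with Alexa488 anti-GST antibody and a 488 nm scan, is the highest Masliner-normalised natural-log median intensity across replicate spots of either probe orientation.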
Turning to TTTGTTTGTAAAATGTTGCACTTTCTTTTGCTGATA, the “gcPBM binding intensity (ln)” value stood at 8.79 ± 0.37. The value for “ATAGGATTCTCAAAGTGTACTTGTCTACTGTAGTTT [XGTACX_site4202]” was 8.43 ± 0.33; that for “ACATATATATATATTACACACACACTAATAAAATAA [CACACA_site7920]” was 8.74 ± 0.59; that for “TTTCAAGAATTATATAAACACACATACATACACCCA [CACACA_site8592]” was 8.98 ± 0.58. In the case of “TTTTTTTTTCTTTGCACACAGATAACTTGAAATTTG [CACACA_site2185]” it was 8.58 ± 0.45. In the case of “TTTTATAATTTATCTAAAAAAAAATAAAATAAAATG [TGCATGCA_negctrl_site429]” it was 8.505 ± 0.078; in that of “ATAAAATAAAATAAAAGTACATAAATATATATATAT [XGTACX_site6110]”, 9.83 ± 0.28. For “ATAATTAATCCAAAATGTACTTACATTTTATATGAA [XGTACX_site8888]”, the “gcPBM binding intensity (ln)” value was found to be 8.35 ± 0.44. The value for “AAATAATTCATATGTTGTACAGTAATTAAATTTTCT [XGTACX_site6343]” was 8.48 ± 0.33.

Regarding “ATAAGGATCAGACACAAACACACATATATATATATA [CACACA_site558]”, the “gcPBM binding intensity (ln)” value is 10.1 ± 0.41. In the case of “CGAATAAATATATGTAGTACATGTTGTAGATAATTT [XGTACX_site1218]” it was 8.79 ± 0.32; in that of “TCTTTCTATTAAACATGTACTTGTCTAAAGACATAA [XGTACX_site8564]”, 8.59 ± 0.38. On to “TATATATATTTAAATTGTACATATATTATTCATATG [XGTACX_site911]”, for which the “gcPBM binding intensity (ln)” value is 8.52 ± 0.33. Turning to “AATAATATATATTACTGTACTAATATAAGGGACATC [XGTACX_site3744]”, the “gcPBM binding intensity (ln)” value stood at 8.98 ± 0.31. The value for “ATTTATGAAAAAAATACATGCATGTCCATATAAATT [TGCATGCA_site505]” was 9.2 ± 0.3. In the case of “TTGTCAAAAATTACACACATAAATGAATAAATAAAT [XGTACX_negctrl_site541]” it was 8.42 ± 0.54. The value for “TTATTTTCTACAAATTGTACATATTTTTTACTACTC [XGTACX_site1394]” was 8.91 ± 0.45. In the case of “TAATATATATGTATGGCACACACGGATAAATATATA [CACACA_site930]”, the “gcPBM binding intensity (ln)” value is 8.8 ± 0.44. With “AAAAAAAATATGAAAACACACATATATAAATAAATA [CACACA_site113]”, the “gcPBM binding intensity (ln)” value amounted to 8.54 ± 0.36. The value for CATGCCTTTAAAAAGGTGCAAACATTTTCACAAACA was 8.95 ± 0.43; that for “AACAAAATAAGACACACACACAAATGTACCTATATA [CACACA_site7189]” was 8.49 ± 0.44. In the case of “TCTTTTTTAAATAAAAGTACAAAAAAAAATAAAAAA [XGTACX_site2670]” it was 8.59 ± 0.48; in that of “ATGTAATTCTTTTACTTTTTTTTTTTTTTTTTTTTT [CACACA_negctrl_site979]”, 8.77 ± 0.19; in that of “CAAACAAATATATGTTGTACTTATTATATATACATA [XGTACX_site2998]”, 8.38 ± 0.33. The value for “TTATCATATGTATGCATACACACAAAAAATTATATA [CACACA_site397]” was 8.6 ± 0.45; that for “ATAAATGAGCCATATTAAATCCGTTACACGGGTGTG [CACACA_negctrl_site1368]” was 8.12 ± 0.39.

Regarding “AAATTATTTTGTTATCATTATATATAGATTGAATAT [XGTACX_negctrl_site165]”, the “gcPBM binding intensity (ln)” value amounted to 8.38 ± 0.62. For “AACGGGTAATGCACAAAAAAAAAAAAATAAAATAAA [TGCATGCA_negctrl_site474]”, the “gcPBM binding intensity (ln)” value came to 8.6 ± 0.4. The value for “TTCTTTTAAATTAGCTGTACGGTTTTCTACATGCAT [XGTACX_site356]” was 9.51 ± 0.28. The value for TACAATATATTTATAGTGCATATTACTTTTAACTTT was 8.22; that for “TCGTAATAATATAAATGTACTTTATTAATTAAAAGA [XGTACX_site3416]” was 8.2 ± 0.4; that for ATAACAAAAATCCTTGTGCACTATTTTAATAGAGTC was 9.06 ± 0.38. In the case of “ACATTGCACCCGTGCACACATAGAAAAATAATTCTT [CACACA_site409]” it was 8.52 ± 0.15; in that of “GTAGTCCAAAAAAAGCGTACACAGAAAAAAAAAAAA [XGTACX_site4273]”, 8.63 ± 0.41.

Turning to “CATTATGATTAAATATGTACATATTATTATATAAAT [XGTACX_site2477]”, the “gcPBM binding intensity (ln)” value turned out to be 8.41 ± 0.42. In the case of “TACATCTTACTACTTATAATATAATATAGTATGAAT [TGCATGCA_negctrl_site8]” it was 8.21 ± 0.43; in that of “ATATAATTTATGTGCACACACTCCTATTTTTAGCTT [CACACA_site50]”, 9.07 ± 0.16.

As for “AAAAAGTAAAAGAAAGCACACACACCGGTATATATG [CACACA_site9281]”, the “gcPBM binding intensity (ln)” value was 8.55 ± 0.61. In the case of “AAAAAAAATTTTATCTGTACACATTTTTTTCTTTTT [XGTACX_site4229]” it was 8.65 ± 0.49; in that of “ATTTATTTATATAATACACACAAATATCTTAATGAA [CACACA_site6064]”, 8.26 ± 0.41; in that of “ATTTTTTCTAATGGGTGTACTGAAACGTATTTTATT [XGTACX_site6573]”, 8.85 ± 0.4.

Turning to “TTATTTTTTCTTTTTTTTCTTACCACAAAAATGGAT [CACACA_negctrl_site362]”, the “gcPBM binding intensity (ln)” value was 8.62 ± 0.65. The value for “ATTTGTAATTATTAAACACACACAAAATATATATAA [CACACA_site8804]” was 8.62 ± 0.52; that for “AAAAAAAAAAAAAACACACACATATCTATAATATAT [CACACA_site7481]” was 8.37 ± 0.41.
